Test results: patent US20200138970A1 (Bayer, published 2020)

Target: T1, human B7H3 on cancer cell lines (human, UniProt Q5ZPR3 29-534)
T1 sequence (looked up): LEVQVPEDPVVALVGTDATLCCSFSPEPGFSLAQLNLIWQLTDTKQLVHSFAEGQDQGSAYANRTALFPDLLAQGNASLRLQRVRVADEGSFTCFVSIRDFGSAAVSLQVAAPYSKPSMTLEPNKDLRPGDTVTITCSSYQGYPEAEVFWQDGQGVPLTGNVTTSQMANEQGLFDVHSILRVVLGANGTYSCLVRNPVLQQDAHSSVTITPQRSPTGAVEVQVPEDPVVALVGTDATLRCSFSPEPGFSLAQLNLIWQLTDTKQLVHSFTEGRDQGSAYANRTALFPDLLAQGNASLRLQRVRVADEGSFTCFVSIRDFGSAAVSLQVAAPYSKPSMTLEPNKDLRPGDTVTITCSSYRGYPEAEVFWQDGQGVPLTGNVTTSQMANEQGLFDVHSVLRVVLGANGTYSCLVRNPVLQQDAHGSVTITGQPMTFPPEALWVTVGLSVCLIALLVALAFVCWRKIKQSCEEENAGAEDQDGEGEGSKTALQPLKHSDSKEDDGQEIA
Test: cell-based or functional assay

Row | Binder | U251 CTG (IC50 M) | NCI-H292 CTG (IC50 M)
1 | ADC Example 208-8322 (antibody, human IgG1, lambda, drug-linker from Intermediate F104 on Cys, sites not stated) heavy: EVQLLESGGGLVQPGGSLRLSCAASGFTFSSYGMHWVRQAPGKGLEWVSAISGSGGSTYYADSVKGRFTISRDNSKNTLYLQMNSLRAEDTAVYYCARGYYYYGMDVWGQGTLVTVSS[left out - human IgG1 constant region] light: QSVLTQPPSASGTPGQRVTISCSGGSSNIGSNPVNWYQQLPGTAPKLLIYGNSKRPSGVPDRFSGSKSGTSASLAISGLRSEDEADYYCQSYDSSLSGWVFGGGTKLTVLGQPKAAPSVTLFPPSSEELQANKATLVCLISDFYPGAVTVAWKADSSPVKAGVETTTPSKQSNNKYAASSYLSLTPEQWKSHRSYSCQVTHEGSTVEKTVAPTECS | 0.0675 nM | –
2 | ADC Example 257-8382 (antibody, human IgG1, lambda, drug-linker from Intermediate F257 on Cys, sites not stated) heavy: EVQLLESGGGLVQPGGSLRLSCAASGFTFSSYAMSWVRQAPGKGLEWVSSISGSGGSTLYADSVKGRFTISRDNSKNTLYLQMNSLRAEDTAVYYCAKLTGTSFDYWGQGTLVTVSS[left out - human IgG1 constant region] light: QSVLTQPPSASGTPGQRVTISCSGSSSNIGSNPVNWYQQLPGTAPKLLIYSNNQRPSGVPDRFSGSKSGTSASLAITGLQSEDEADYYCQSFDSSLKKVFGGGTKLTVLGQPKAAPSVTLFPPSSEELQANKATLVCLISDFYPGAVTVAWKADSSPVKAGVETTTPSKQSNNKYAASSYLSLTPEQWKSHRSYSCQVTHEGSTVEKTVAPTECS | 0.0856 nM | –
3 | ADC Example 308-6497 (antibody, human IgG1, lambda, drug-linker from Intermediate F308 on Cys, sites not stated) heavy: EVQLLESGGGLVQPGGSLRLSCAASGFTFRSYAMSWVRQAPGKGLEWVSSVSGSGGSALYADSVKGRFTISRDNSKNTLYLQMNSLRAEDTAVYYCTRLTGTSFDYWGQGTLVTVSS[left out - human IgG1 constant region] light: QSVLTQPPSASGTPGQRVTISCSGSSSNIGSNPVNWYQQLPGTAPKLLIYGNSNRPSGVPDRFSGSKSGTSASLAISGLRSEDEADYYCQSFDSSLKKVFGGGTKLTVLGQPKAAPSVTLFPPSSEELQANKATLVCLISDFYPGAVTVAWKADSSPVKAGVETTTPSKQSNNKYAASSYLSLTPEQWKSHRSYSCQVTHEGSTVEKTVAPTECS | 216 nM | –
4 | ADC Example 208-7611 (antibody, human IgG1, lambda, drug-linker from Intermediate F104 on Cys, sites not stated) heavy: EVQLLESGGGLVQPGGSLRLSCAASGFTFRSYAMSWVRQAPGKGLEWVSSVSGSGGSALYADSVKGRFTISRDNSKNTLYLQMNSLRAEDTAVYYCTRLTGTSFDYWGQGTLVTVSS[left out - human IgG1 constant region with changes] light: QSVLTQPPSASGTPGQRVTISCSGSSSNIGSNPVNWYQQLPGTAPKLLIYGNSNRPSGVPDRFSGSKSGTSASLAISGLRSEDEADYYCQSFDSSLKKVFGGGTKLTVLGQPKAAPSVTLFPPSSEELQANKATLVCLISDFYPGAVTVAWKADSSPVKAGVETTTPSKQSNNKYAASSYLSLTPEQWKSHRSYSCQVTHEGSTVEKTVAPTECS | 0.249 nM | –
5 | ADC Example 311-8382 (antibody, human IgG1, lambda, drug-linker from Intermediate F311 on Cys, sites not stated) heavy: EVQLLESGGGLVQPGGSLRLSCAASGFTFSSYAMSWVRQAPGKGLEWVSSISGSGGSTLYADSVKGRFTISRDNSKNTLYLQMNSLRAEDTAVYYCAKLTGTSFDYWGQGTLVTVSS[left out - human IgG1 constant region] light: QSVLTQPPSASGTPGQRVTISCSGSSSNIGSNPVNWYQQLPGTAPKLLIYSNNQRPSGVPDRFSGSKSGTSASLAITGLQSEDEADYYCQSFDSSLKKVFGGGTKLTVLGQPKAAPSVTLFPPSSEELQANKATLVCLISDFYPGAVTVAWKADSSPVKAGVETTTPSKQSNNKYAASSYLSLTPEQWKSHRSYSCQVTHEGSTVEKTVAPTECS | 21 nM | > 300 nM
6 | ADC Example 267-6497 (antibody, human IgG1, lambda, drug-linker from Intermediate F267 on Cys, sites not stated) heavy: EVQLLESGGGLVQPGGSLRLSCAASGFTFRSYAMSWVRQAPGKGLEWVSSVSGSGGSALYADSVKGRFTISRDNSKNTLYLQMNSLRAEDTAVYYCTRLTGTSFDYWGQGTLVTVSS[left out - human IgG1 constant region] light: QSVLTQPPSASGTPGQRVTISCSGSSSNIGSNPVNWYQQLPGTAPKLLIYGNSNRPSGVPDRFSGSKSGTSASLAISGLRSEDEADYYCQSFDSSLKKVFGGGTKLTVLGQPKAAPSVTLFPPSSEELQANKATLVCLISDFYPGAVTVAWKADSSPVKAGVETTTPSKQSNNKYAASSYLSLTPEQWKSHRSYSCQVTHEGSTVEKTVAPTECS | 28.4 nM | –
7 | ADC Example 263-6497 (antibody, human IgG1, lambda, drug-linker from Intermediate F263 on Cys, sites not stated) heavy: EVQLLESGGGLVQPGGSLRLSCAASGFTFRSYAMSWVRQAPGKGLEWVSSVSGSGGSALYADSVKGRFTISRDNSKNTLYLQMNSLRAEDTAVYYCTRLTGTSFDYWGQGTLVTVSS[left out - human IgG1 constant region] light: QSVLTQPPSASGTPGQRVTISCSGSSSNIGSNPVNWYQQLPGTAPKLLIYGNSNRPSGVPDRFSGSKSGTSASLAISGLRSEDEADYYCQSFDSSLKKVFGGGTKLTVLGQPKAAPSVTLFPPSSEELQANKATLVCLISDFYPGAVTVAWKADSSPVKAGVETTTPSKQSNNKYAASSYLSLTPEQWKSHRSYSCQVTHEGSTVEKTVAPTECS | 4.37 nM | –
8 | ADC Example 307-6497 (antibody, human IgG1, lambda, drug-linker from Intermediate F307 on Cys, sites not stated) heavy: EVQLLESGGGLVQPGGSLRLSCAASGFTFRSYAMSWVRQAPGKGLEWVSSVSGSGGSALYADSVKGRFTISRDNSKNTLYLQMNSLRAEDTAVYYCTRLTGTSFDYWGQGTLVTVSS[left out - human IgG1 constant region] light: QSVLTQPPSASGTPGQRVTISCSGSSSNIGSNPVNWYQQLPGTAPKLLIYGNSNRPSGVPDRFSGSKSGTSASLAISGLRSEDEADYYCQSFDSSLKKVFGGGTKLTVLGQPKAAPSVTLFPPSSEELQANKATLVCLISDFYPGAVTVAWKADSSPVKAGVETTTPSKQSNNKYAASSYLSLTPEQWKSHRSYSCQVTHEGSTVEKTVAPTECS | 0.466 nM | –
9 | ADC Example 271-6497 (antibody, human IgG1, lambda, drug-linker from Intermediate F271 on Cys, sites not stated) heavy: EVQLLESGGGLVQPGGSLRLSCAASGFTFRSYAMSWVRQAPGKGLEWVSSVSGSGGSALYADSVKGRFTISRDNSKNTLYLQMNSLRAEDTAVYYCTRLTGTSFDYWGQGTLVTVSS[left out - human IgG1 constant region] light: QSVLTQPPSASGTPGQRVTISCSGSSSNIGSNPVNWYQQLPGTAPKLLIYGNSNRPSGVPDRFSGSKSGTSASLAISGLRSEDEADYYCQSFDSSLKKVFGGGTKLTVLGQPKAAPSVTLFPPSSEELQANKATLVCLISDFYPGAVTVAWKADSSPVKAGVETTTPSKQSNNKYAASSYLSLTPEQWKSHRSYSCQVTHEGSTVEKTVAPTECS | 28.7 nM | –
10 | ADC Example 309-6497 (antibody, human IgG1, lambda, drug-linker from Intermediate F309 on Cys, sites not stated) heavy: EVQLLESGGGLVQPGGSLRLSCAASGFTFRSYAMSWVRQAPGKGLEWVSSVSGSGGSALYADSVKGRFTISRDNSKNTLYLQMNSLRAEDTAVYYCTRLTGTSFDYWGQGTLVTVSS[left out - human IgG1 constant region] light: QSVLTQPPSASGTPGQRVTISCSGSSSNIGSNPVNWYQQLPGTAPKLLIYGNSNRPSGVPDRFSGSKSGTSASLAISGLRSEDEADYYCQSFDSSLKKVFGGGTKLTVLGQPKAAPSVTLFPPSSEELQANKATLVCLISDFYPGAVTVAWKADSSPVKAGVETTTPSKQSNNKYAASSYLSLTPEQWKSHRSYSCQVTHEGSTVEKTVAPTECS | 65.7 nM | –
